This is one part of the list.
Tested on: S. aureus RN4220
Assay: growth inhibition call (relative growth <= 0.2)
Details: 50 µM

Growth inhibition call, inactive:
CCc1ccc(NC(=O)Cc2coc3ccc(C(C)C)cc23)cc1
C[C@@H]1CN([C@@H](C)CO)C(=O)c2cc(NS(=O)(=O)c3cn(C)cn3)ccc2O[C@@H](C)CCCCO[C@@H]1CN(C)C(=O)CCCN(C)C
N[C@H](CC(=O)O)C(=O)O
C[C@@H]1CCCCO[C@@H](CN(C)C(=O)Nc2ccccc2)[C@H](C)CN([C@@H](C)CO)C(=O)c2cc(NC(=O)C3CCCCC3)ccc2O1
COc1ccc(S(=O)(=O)Nc2ccc3c(c2)C(=O)N([C@H](C)CO)C[C@@H](C)[C@@H](CN(C)C(=O)NC2CCCCC2)OCCCC[C@H](C)O3)cc1
C[C@H](CS)C(=O)N1CCC[C@H]1C(=O)O
C[C@H]1CN([C@@H](C)CO)C(=O)c2cccc(NS(=O)(=O)c3ccc(F)cc3)c2O[C@H]1CN(C)CC1CC1
Cc1noc(C)c1S(=O)(=O)Nc1ccc2c(c1)CC(=O)N([C@@H](C)CO)C[C@@H](C)[C@@H](CN(C)Cc1ccc(C(=O)O)cc1)O2
